#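 Dose response: 5 concentrations. Exposure: 48 h. Format: 96-well plates. Endpoint: linear interpolation; highest concentration if not reached. Here, GI50 denotes the concentration required for 50% inhibition of growth. TGI: concentration producing complete growth inhibition.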
# Tested on: NCI-H322M lung
# Test: NCI anticancer screen, dose series, 48 h
Structure (SMILES),GI50 [µM],TGI [µM]
CCc1ccc(SC2c3cc(OC)ccc3Oc3nc(N)c(C#N)c(N)c32)cc1 (configuration not stated),6.84,22.6
COc1ccc(-c2nc(S(=O)(=O)c3ccccc3)c(S(C)(=O)=O)o2)cc1,16,30
CN(C)c1nc(NCCNS(=O)(=O)c2ccc(C3=Nc4c(N)nc(N)nc4NC(c4ccc(C(F)(F)F)cc4)C3)cc2)nc(N2CCOCC2)n1 (configuration not stated),45.4,> 100
COc1cnc2c(c1)C(=O)c1c-2n(CCCNCCO)c(=O)c2cc(OC)c(OC)cc12,3.51,18.9
C=CC(=O)N1CCN(c2ccc3nc4c(nc3c2C(F)(F)F)C(=O)c2ncccc2C4=O)CC1,4.43,16.4
O=C(/C=C/c1ccc(F)cc1)c1nc2ccccc2n1Cc1ccc(Br)cc1,3.13,13.5
